About 14,000 (4.5%) of roughly 310,000 compounds showed an effect of 50% or more. Effects have a minus sign here. This is one part of the list.
These compounds were tested against human ether-à-go-go-related gene (hERG) potassium channel (human, UniProt Q12809) (assay: primary screen, population patch clamp on CHO cells stably expressing hERG).
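Further: peak tail current of the secondary pulse compared with the same well before compound.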

Chain of human ether-à-go-go-related gene (hERG) potassium channel (Q12809 whole entry, looked up): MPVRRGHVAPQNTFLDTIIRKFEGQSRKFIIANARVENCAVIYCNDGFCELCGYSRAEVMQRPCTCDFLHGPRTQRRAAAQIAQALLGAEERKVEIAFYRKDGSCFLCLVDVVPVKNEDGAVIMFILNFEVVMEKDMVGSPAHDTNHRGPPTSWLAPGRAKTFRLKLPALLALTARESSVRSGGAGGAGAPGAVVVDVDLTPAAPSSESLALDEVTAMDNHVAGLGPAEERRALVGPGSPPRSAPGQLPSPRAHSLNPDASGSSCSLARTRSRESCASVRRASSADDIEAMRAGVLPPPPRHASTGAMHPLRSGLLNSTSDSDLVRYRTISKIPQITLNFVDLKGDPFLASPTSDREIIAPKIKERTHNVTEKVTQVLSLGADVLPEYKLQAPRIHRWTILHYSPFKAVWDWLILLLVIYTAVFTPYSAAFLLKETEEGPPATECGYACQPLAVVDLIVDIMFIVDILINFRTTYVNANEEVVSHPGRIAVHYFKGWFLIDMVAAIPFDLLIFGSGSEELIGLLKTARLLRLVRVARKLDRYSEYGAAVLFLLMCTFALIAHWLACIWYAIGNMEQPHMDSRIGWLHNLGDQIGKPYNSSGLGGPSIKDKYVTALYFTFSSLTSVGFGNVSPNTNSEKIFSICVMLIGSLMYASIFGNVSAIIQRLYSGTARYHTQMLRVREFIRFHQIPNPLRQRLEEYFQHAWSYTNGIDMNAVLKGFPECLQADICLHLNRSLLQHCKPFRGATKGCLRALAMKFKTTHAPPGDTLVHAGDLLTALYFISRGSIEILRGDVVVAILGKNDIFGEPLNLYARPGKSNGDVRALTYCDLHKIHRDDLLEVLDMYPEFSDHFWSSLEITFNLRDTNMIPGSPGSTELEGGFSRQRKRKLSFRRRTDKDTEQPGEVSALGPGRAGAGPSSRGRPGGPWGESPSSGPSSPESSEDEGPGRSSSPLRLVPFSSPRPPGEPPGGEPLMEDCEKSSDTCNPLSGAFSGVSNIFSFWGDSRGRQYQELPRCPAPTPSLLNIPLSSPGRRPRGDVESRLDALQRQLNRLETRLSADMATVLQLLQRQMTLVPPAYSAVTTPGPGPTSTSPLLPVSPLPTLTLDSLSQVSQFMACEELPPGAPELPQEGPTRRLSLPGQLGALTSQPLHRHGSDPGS

SMILES | hERG current change (%, negative = inhibition) at 10uM [%]
CC(C)(C)c1ccc(/C=C(\C#N)C(=O)Nc2ccccn2)cc1 | 23.7
CCCCN(C(=O)c1ccc(C)o1)c1c(N)n(CC(C)C)c(=O)[nH]c1=O | 13.9
O=C(COc1ccccc1Cl)N1CCN(c2ncccn2)CC1 | -1.56
O=C(C1CCCN1S(=O)(=O)c1ccc(Br)cc1)N1CCOCC1 (centres unmarked) | -5.29
O=C(CSc1nnc(CNc2ccc(F)cc2)n1-c1ccccc1)N1CCOCC1 | -11.4
CCOC(=O)c1cnc(SCCc2ccccc2)nc1N | 4.94
CC(C)[C@H](NC(=O)c1ccc(Cl)c([N+](=O)[O-])c1)C(=O)NCc1ccc(F)cc1 | 3.98
Cc1ccc(CSCC(=O)N(C)CC(=O)Nc2cccc(F)c2)cc1 | -17.5
CCOc1ccc(NC(=O)CN(C)C(=O)c2cc(-c3cccs3)nn2-c2ccccc2)cc1OCC | -37.8
Cc1occc1-c1nnc(SCC(=O)Nc2ccc3c(c2)OCO3)n1CC1CCCO1 (centres unmarked) | -2.13
Cc1[nH]c(C)c(S(=O)(=O)NCc2ccc(N(C)C)cc2)c1C(=O)N1CCCC1 | 10.8
CCN(CC)S(=O)(=O)c1cccc(-c2nnc(SCC(=O)NC)n2N)c1 | 8.5
CC(/C=C/c1ccco1)=N\NC(=O)c1cccc(Cl)c1 | -8.98
c1ccc(-c2nccc3ccccc23)cc1 | -14.5
O=C(NCCOc1cccc(Cl)c1Cl)c1cc(-n2cnnc2)ccc1Cl | -26.5
O=C(c1ccc(S(=O)(=O)Nc2ccccc2F)cc1)N1CCN(c2ccccc2O)CC1 | -8.57
Cc1ccc(CNC(=O)COC(=O)C2CC2)cc1 | 8.2
COC(=O)Cc1nnc(SCC(=O)Nc2ccccc2)c2ccccc12 | -2.47
COc1ccc(OCC(=O)NNC(=O)c2cccc(C)c2)cc1 | 4.57

SMILES | hERG current change (%, negative = inhibition) at 10uM [%]
Cc1ccc(/C=N/NC(=O)Cn2nc(C)c(Br)c2C)o1 | 2.88
COc1ccc(-c2nnc3ccc(SC)nn23)cc1 | -7.69
O=C(Nc1cccc(C(F)(F)F)c1)c1cccnc1N1CCCC1 | 13.2
O=C(NC1CCCCC1)c1ccccc1-c1ccccc1 | -6.12
Cc1ccc(SCC(=O)OCn2nnc3ccccc3c2=O)cc1C | -0.532
CCN(CC)C(=O)C1CC(=O)N(c2ccc(F)c(Cl)c2)C1 (centres unmarked) | 2.5
O=c1c2ccccc2nc(-c2ccc(Cl)cc2Cl)n1-c1nccs1 | -13.8
C[C@@H]1CC[C@H]2C(=O)N3[C@@H](CC[C@@H](C)[C@@H]3c3ccc(Br)cc3)C(=O)N2[C@H]1c1ccc(Br)cc1 | 5.03
O=C(O)c1ccnc(C(=O)O)c1 | 9.11
COc1cc(CC(=O)Nc2ccc(N3CCOCC3)cc2)cc(OC)c1OC | 10.3
Cc1ccc(/C=C/C(=O)OC(C)C(=O)Nc2ccc(Cl)cn2)o1 (centres unmarked) | -17.7
CS(=O)(=O)N1CCC(C(=O)NCc2ccc(F)cc2)CC1 | 15
COc1cc(OC)c(OC)cc1CNCCc1ccc2c(c1)OCO2.O=C(O)C(=O)O | -8.77
CC(C)[C@H](NC(=O)OCc1ccccc1)C(=O)OCC(=O)Nc1c(F)cccc1F | 0.045
Cc1ccc(CN2CCN(/N=C/c3cc([N+](=O)[O-])ccc3Cl)CC2)cc1 | -2.11
CC(=O)N1CCN(S(=O)(=O)c2cccc(C(=O)N(Cc3ccccc3)c3cccc(C)c3)c2)CC1 | -27.4
COc1ccc(C(=O)OCC(=O)Nc2c(C)cccc2C)c(OC)c1OC | 25.8
O=C(C1CCN(S(=O)(=O)c2cccc3cccnc23)CC1)N1CCc2ccccc21 | -10.5
CC(=O)c1ccc(NC2=C(N3CCOCC3)C(=O)c3ccccc3C2=O)cc1 | -25.6

SMILES | hERG current change (%, negative = inhibition) at 10uM [%]
N#Cc1nc(Cc2cccc3ccccc23)oc1NCCCN1CCOCC1 | -26.3
CC(=O)c1cccc(Nc2nc(-c3cccnc3)cs2)c1 | -9.48
C=CCCN(Cc1ccccc1)S(=O)(=O)c1cc(Br)ccc1Br | 0.208
COc1ccc2c(c1)c(=O)cc(C)n2CC(=O)NCc1ccco1 | -28
COc1ccc(CCNS(=O)(=O)c2cn(C)c(=O)n(C)c2=O)cc1OC | 8.4
Cc1ccc(S(=O)(=O)N(C)C)cc1NC(=S)NC(C)CCC(C)C (centres unmarked) | -14
O=C(NCC(c1ccco1)N1CCCCC1)c1cccnc1 (centres unmarked) | -10
Cc1cc(NC(=O)c2sc(Nc3ccc(F)c(Cl)c3)nc2N)no1 | 4.93
COc1ccccc1NS(=O)(=O)c1cc(NC(=O)/C=C/c2cccs2)ccc1N1CCOCC1 | -2.6
O=C(O)c1ccccc1C(=O)Nn1cnnc1 | 10.6
CC1CCCCC1NC(=O)/C(C#N)=C/c1ccccc1F (centres unmarked) | -7.9
CC1COc2ccccc2N1C(=O)c1ccc(F)cc1 (centres unmarked) | 4.48
Cn1cccc1CC(=O)NNC(=O)Nc1ccccc1F | 7.76
CC(C)(C)c1ccc(S(=O)(=O)/N=C2\C=C(NS(=O)(=O)c3ccccc3)C(=O)c3ccccc32)cc1 | -2.61
Nn1c(SCC(=O)N2CCCCCC2)nnc1-c1ccncc1 | -9.28
O=C(C1CCC(Cn2c(=S)[nH]c3ccccc3c2=O)CC1)N1CCN(c2ccccn2)CC1 (centres unmarked) | 17.3
Cc1ccc2oc(=O)c3cnn(CC(=O)NCCN4CCOCC4)c3c2c1 | 4.28
COc1cc2c(cc1OC)C(c1ccccc1Cl)N(C)CC2 (centres unmarked) | 1.73
